# This is one part of the list.
# How the values were obtained:
# Assay in all cases: glycan array binding signal (z-score within array); higher = stronger binding
# Conditions in all cases: glycan notation: IUPAC condensed, linker removed
# Gal(a1-3)Gal = target: Gal(a1-3)Gal
# In short: (§1)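 The binding signal is a Z-score computed within each array and averaged over linkers. Arrays of the same protein sequence at different concentrations or buffers were also averaged together. Data originate from 3228 arrays in the Consortium for Functional Glycomics database, kept only where the protein sequence was available.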
# Gal(a1-3)Gal(b1-3)GlcNAc = target: Gal(a1-3)Gal(b1-3)GlcNAc
# In short: as §1
# [1] = target: Gal(a1-3)Gal(b1-3)GlcNAc(b1-2)Man(a1-3)[Gal(a1-3)Gal(b1-3)GlcNAc(b1-2)Man(a1-6)]Man(b1-4)GlcNAc(b1-4)GlcNAc
# In short: as §1
# [2] = target: Gal(a1-3)Gal(b1-3)GlcNAc(b1-3)GalNAc
# In short: as §1
# [3] = target: Gal(a1-3)Gal(b1-3)[Fuc(a1-4)]GlcNAc(b1-2)Man(a1-3)[Gal(a1-3)Gal(b1-3)[Fuc(a1-4)]GlcNAc(b1-2)Man(a1-6)]Man(b1-4)GlcNAc(b1-4)GlcNAc
# In short: as §1
# Gal(a1-3)Gal(b1-4)Glc = target: Gal(a1-3)Gal(b1-4)Glc
# In short: as §1
# Gal(a1-3)Gal(b1-4)GlcNAc = target: Gal(a1-3)Gal(b1-4)GlcNAc
# In short: as §1
# [4] = target: Gal(a1-3)Gal(b1-4)GlcNAc(b1-3)GalNAc
# In short: as §1
# [5] = target: Gal(a1-3)Gal(b1-4)[Fuc(a1-3)]GlcNAc
# In short: as §1
# [6] = target: Gal(a1-3)Gal(b1-4)[Fuc(a1-3)]GlcNAc(b1-2)Man(a1-3)[Gal(a1-3)Gal(b1-4)[Fuc(a1-3)]GlcNAc(b1-2)Man(a1-6)]Man(b1-4)GlcNAc(b1-4)GlcNAc
# In short: as §1
# Gal(a1-3)GalNAc = target: Gal(a1-3)GalNAc
# In short: as §1
# [7] = target: Gal(a1-3)[Gal(a1-4)]Gal(b1-4)GlcNAc
# In short: as §1
# [8] = target: Gal(a1-4)Gal(b1-3)GlcNAc(b1-2)Man(a1-3)[Gal(a1-4)Gal(b1-3)GlcNAc(b1-2)Man(a1-6)]Man(b1-4)GlcNAc(b1-4)GlcNAc
# In short: as §1
# Gal(a1-4)Gal(b1-4)Glc = target: Gal(a1-4)Gal(b1-4)Glc
# In short: as §1
# Gal(a1-4)Gal(b1-4)GlcNAc = target: Gal(a1-4)Gal(b1-4)GlcNAc
# In short: as §1
# [9] = target: Gal(a1-4)Gal(b1-4)GlcNAc(b1-2)Man(a1-3)[Gal(a1-4)Gal(b1-4)GlcNAc(b1-2)Man(a1-6)]Man(b1-4)GlcNAc(b1-4)GlcNAc
# In short: as §1
# [10] = target: Gal(a1-4)Gal(b1-4)GlcNAc(b1-3)Gal(b1-4)Glc
# In short: as §1
# Gal(a1-4)GlcNAc = target: Gal(a1-4)GlcNAc
# In short: as §1
# Gal(a1-6)Glc = target: Gal(a1-6)Glc
# In short: as §1
# Gal(b1-2)Gal = target: Gal(b1-2)Gal
# In short: as §1
# Gal(b1-3)Gal = target: Gal(b1-3)Gal
# In short: as §1
# Gal(b1-3)Gal(b1-4)GlcNAc = target: Gal(b1-3)Gal(b1-4)GlcNAc
# In short: as §1
# [11] = target: Gal(b1-3)Gal(b1-4)GlcNAc(b1-2)Man(a1-3)[Gal(b1-3)Gal(b1-4)GlcNAc(b1-2)Man(a1-6)]Man(b1-4)GlcNAc(b1-4)GlcNAc
# In short: as §1
# Gal(b1-3)GalNAc = target: Gal(b1-3)GalNAc
# In short: as §1
# [12] = target: Gal(b1-3)GalNAc(a1-3)[Fuc(a1-2)]Gal(b1-4)Glc
# In short: as §1
# [13] = target: Gal(b1-3)GalNAc(a1-3)[Fuc(a1-2)]Gal(b1-4)GlcNAc
# In short: as §1
# [14] = target: Gal(b1-3)GalNAc(b1-3)Gal(a1-4)Gal(b1-4)Glc
# In short: as §1
# [15] = target: Gal(b1-3)GalNAc(b1-4)Gal(b1-4)Glc
# In short: as §1
# [16] = target: Gal(b1-3)GalNAc(b1-4)[Neu5Ac(a2-3)]Gal(b1-4)Glc
# In short: as §1
# Gal(b1-3)GlcNAc = target: Gal(b1-3)GlcNAc
# In short: as §1
# [17] = target: Gal(b1-3)GlcNAc(a1-6)Gal(b1-4)GlcNAc
# In short: as §1
# [18] = target: Gal(b1-3)GlcNAc(b1-2)Man(a1-3)[Gal(b1-3)GlcNAc(b1-2)Man(a1-6)]Man(b1-4)GlcNAc(b1-4)GlcNAc
# In short: as §1
# [19] = target: Gal(b1-3)GlcNAc(b1-2)Man(a1-3)[Gal(b1-3)GlcNAc(b1-2)Man(a1-6)]Man(b1-4)GlcNAc(b1-4)[Fuc(a1-6)]GlcNAc
# In short: as §1
# [20] = target: Gal(b1-3)GlcNAc(b1-2)[Gal(b1-3)GlcNAc(b1-6)]Man(a1-6)[Gal(b1-3)GlcNAc(b1-2)Man(a1-3)]Man(b1-4)GlcNAc(b1-4)GlcNAc
# In short: as §1
# [21] = target: Gal(b1-3)GlcNAc(b1-3)Gal(b1-3)GlcNAc
# In short: as §1
# [22] = target: Gal(b1-3)GlcNAc(b1-3)Gal(b1-4)Glc
# In short: as §1
# [23] = target: Gal(b1-3)GlcNAc(b1-3)Gal(b1-4)GlcNAc
# In short: as §1
# [24] = target: Gal(b1-3)GlcNAc(b1-3)Gal(b1-4)GlcNAc(b1-6)[Gal(b1-3)GlcNAc(b1-3)]Gal(b1-4)Glc
# In short: as §1
# [25] = target: Gal(b1-3)GlcNAc(b1-3)Gal(b1-4)[Fuc(a1-3)]GlcNAc(b1-6)[Gal(b1-3)GlcNAc(b1-3)]Gal(b1-4)Glc
# In short: as §1
# [26] = target: Gal(b1-3)GlcNAc(b1-3)GalNAc
# In short: as §1
# [27] = target: Gal(b1-3)GlcNAc(b1-6)Gal(b1-4)GlcNAc
# In short: as §1
# [28] = target: Gal(b1-3)[Fuc(a1-4)]GlcNAc
# In short: as §1
# [29] = target: Gal(b1-3)[Fuc(a1-4)]GlcNAc(b1-2)Man(a1-3)[Gal(b1-3)[Fuc(a1-4)]GlcNAc(b1-2)Man(a1-6)]Man(b1-4)GlcNAc(b1-4)GlcNAc
# In short: as §1
# [30] = target: Gal(b1-3)[Fuc(a1-4)]GlcNAc(b1-2)Man(a1-3)[Gal(b1-3)[Fuc(a1-4)]GlcNAc(b1-2)Man(a1-6)]Man(b1-4)GlcNAc(b1-4)[Fuc(a1-6)]GlcNAc
# In short: as §1
# [31] = target: Gal(b1-3)[Fuc(a1-4)]GlcNAc(b1-3)Gal(b1-3)[Fuc(a1-4)]GlcNAc
# In short: as §1
binder,measurement,setting,value
"CVN (Nostoc ellipsosporum), P81180 (protein) LGKFSQTCYNSAIQGSVLTSTCERTNGGYNTSSIDLNSVIENVDGSLKWQPSNFIETCRNTQLAGSSELAAECKTRAQQFVSTKINLDDHIANIDGTLKYE",glycan array binding signal (z-score),Gal(a1-3)Gal,-0.306
same,glycan array binding signal (z-score),Gal(a1-3)Gal(b1-3)GlcNAc,-0.296
same,glycan array binding signal (z-score),[1],0.269
same,glycan array binding signal (z-score),[2],-0.047
same,glycan array binding signal (z-score),[3],2.05
same,glycan array binding signal (z-score),Gal(a1-3)Gal(b1-4)Glc,-0.276
same,glycan array binding signal (z-score),Gal(a1-3)Gal(b1-4)GlcNAc,-0.304
same,glycan array binding signal (z-score),[4],-0.278
same,glycan array binding signal (z-score),[5],-0.3
same,glycan array binding signal (z-score),[6],-0.053
same,glycan array binding signal (z-score),Gal(a1-3)GalNAc,-0.303
same,glycan array binding signal (z-score),[7],-0.304
same,glycan array binding signal (z-score),[8],1.42
same,glycan array binding signal (z-score),Gal(a1-4)Gal(b1-4)Glc,-0.304
same,glycan array binding signal (z-score),Gal(a1-4)Gal(b1-4)GlcNAc,-0.306
same,glycan array binding signal (z-score),[9],-0.281
same,glycan array binding signal (z-score),[10],-0.307
same,glycan array binding signal (z-score),Gal(a1-4)GlcNAc,-0.304
same,glycan array binding signal (z-score),Gal(a1-6)Glc,-0.174
same,glycan array binding signal (z-score),Gal(b1-2)Gal,-0.303
same,glycan array binding signal (z-score),Gal(b1-3)Gal,-0.303
same,glycan array binding signal (z-score),Gal(b1-3)Gal(b1-4)GlcNAc,-0.292
same,glycan array binding signal (z-score),[11],-0.017
same,glycan array binding signal (z-score),Gal(b1-3)GalNAc,-0.305
same,glycan array binding signal (z-score),[12],-0.299
same,glycan array binding signal (z-score),[13],-0.299
same,glycan array binding signal (z-score),[14],-0.304
same,glycan array binding signal (z-score),[15],-0.307
same,glycan array binding signal (z-score),[16],-0.306
same,glycan array binding signal (z-score),Gal(b1-3)GlcNAc,-0.304
same,glycan array binding signal (z-score),[17],-0.303
same,glycan array binding signal (z-score),[18],0.898
same,glycan array binding signal (z-score),[19],1.13
same,glycan array binding signal (z-score),[20],1.59
same,glycan array binding signal (z-score),[21],-0.304
same,glycan array binding signal (z-score),[22],-0.283
same,glycan array binding signal (z-score),[23],-0.296
same,glycan array binding signal (z-score),[24],-0.301
same,glycan array binding signal (z-score),[25],-0.265
same,glycan array binding signal (z-score),[26],-0.217
same,glycan array binding signal (z-score),[27],-0.307
same,glycan array binding signal (z-score),[28],-0.305
same,glycan array binding signal (z-score),[29],0.535
same,glycan array binding signal (z-score),[30],3.33
same,glycan array binding signal (z-score),[31],0.066

# Reference: the supplement of paper PMC8728848
